Screen size: about 150,000 compounds; about 540 (0.36%) showed an effect of 50% or more. This is one part of the list.

The assay concerns Plasmodium falciparum. Briefly: Primary screen in NF54 nanoGlo assay, in single point, at 2uM, 72h; a lower Z score goes with more inhibition. It counts as functional, Erythrocyte. The settings on record: timepoint 72 hour.
With `CCc1cccc(C)c1/N=C1/N=C(N2CCOCC2)N(c2ccc(C)cc2)C12CCCCC2`, the “% Inhibition” value is listed as -34% and the Z score came out at 3.98.
For `CC(NC(C)c1ccncc1F)c1ccc2c(c1)COC(C)(C)O2` (centres undefined), in that order: 2% and -0.21.
Consider `CO[C@H]1CN(C(=O)Cc2cc(C)cc(C)c2)C[C@@H]1O`, for which the “% Inhibition” value is -15% and the Z score was 2.78.
For `C=CCNC(=O)C1C(=O)N[C@@]2(C)C[C@H]1c1ccccc1O2` (some centres undefined), in that order: -2% and 0.22.
As to `COc1ccccc1N1CCN(C(=O)c2cn3c4c(cccc4c2=O)CC3)CC1`, the “% Inhibition” value was -3% and the Z score came out at 0.32.
Take `N#Cc1c(C2CC2)cc(-c2cc(CN3CCCC3)cs2)nc1N`: the “% Inhibition” value is -13% and the Z score is 2.07.
Regarding `CC(=O)c1ccc(N2CCC3(CCOCC3)[C@@H]2C)nc1`, the “% Inhibition” value is listed as -3% and the Z score amounted to 0.29.
The like results for `COCC(=O)N1CC[C@@H](c2nc(C)no2)N(C(=O)C2CCCC2)CC1` were, in that order, 2% and -0.34.
The like results for `CN(Cc1ncc[nH]1)c1nc(-c2ccncc2)nc2c1CCNC2` were, in that order, -10% and 1.38.
Regarding `CCC1CCCC(CN(C)C2CC[S+]([O-])CC2)C1` (centres undefined), the “% Inhibition” value is on record as 3% and the Z score is -0.3.
For `CC[C@H](OC)C(=O)N1CC2CC1(C(N)=O)C2`, the “% Inhibition” value was -6% and the Z score is on record as 1.16.
The like results for `N#Cc1ccc(NCC2(CCO)CC2)c(Br)c1` were, in that order, -3% and 0.34.
As to `O=C(CCN1CCCO1)NC(c1ccc(F)cc1F)[C@H]1C[C@@H](O)C1` (some centres undefined), the “% Inhibition” value was -5% and the Z score turned out to be 0.75.
The like results for `O=C(CC(F)(F)F)NCc1cccs1` were, in that order, 8% and -1.16.
For `CCc1cccc2c(C3CCN(C(=O)CNS(=O)(=O)C4CC4)CC3)c[nH]c12`, in that order: -1% and 0.15.
For `CC(C)Cc1nc(-c2cc(F)cc3c2O[C@@H](CN)C3)n[nH]1`, the “% Inhibition” value is given as -4% and the Z score is 0.78.
The like results for `CC(C)CCN(Cc1ccc(F)cc1F)C[C@H](O)COCc1ccco1` were, in that order, -9% and 1.14.
For `C[C@@H]1CN(C[C@@H]2CN(Cc3ccccc3C(F)(F)F)C[C@@H]2CO)C[C@H](C)O1`, in that order: -5% and 0.65.
For `C[C@@H]1CN(C[C@@H]2CN(c3ncccc3Cl)C[C@@H]2CO)C[C@H](C)O1`, in that order: -12% and 1.63.
In the case of `C[C@H](N(C)C(=O)NCC1CCS(=O)(=O)CC1)C1(C)CC1`, the “% Inhibition” value was 7% and the Z score is listed as -0.91.
For `CCn1nccc1C(=O)N1CCCCC[C@H]1c1nnc(-c2ccccc2)o1`, in that order: -14% and 2.65.
The like results for `N#Cc1cnc(NCc2ccc(NC(=O)c3ccc(F)cc3)cc2)cn1` were, in that order, -17% and 2.89.
The like results for `Cc1nc2n(c1Br)CCN(CCC1(O)CCC1)[C@H]2C` were, in that order, 1% and -0.09.
Take `O=C1CC2(CCN(C(=O)c3cc(C4CC4)no3)CC2)CN1Cc1ccccc1`: the “% Inhibition” value is -2% and the Z score amounted to 0.19.
With `COc1cccnc1NC(=O)N1CC2(CC=CC2)[C@H]1c1ccccc1`, the “% Inhibition” value worked out at 5% and the Z score was -0.71.
On to `O[C@@]1(CN2CCCCC2)CCN(Cc2cccc(OC(F)F)c2)C1`, for which the “% Inhibition” value was -6% and the Z score is recorded as 1.06.
For `CO[C@@]12CC[C@H](O)C[C@@H]1N(C(=O)c1[nH]c3ccccc3c1C)CC2`, in that order: -22% and 1.97.
Regarding `Cc1cc(NC(=O)CN2CCO[C@H](c3ccsc3)C2)no1`, the “% Inhibition” value was -4% and the Z score is on record as 0.53.
In the case of `COC(=O)c1ccc([C@@H](CC(=O)NCc2ccccc2)c2c[nH]c3cccc(OC)c23)cc1`, the “% Inhibition” value is on record as 2% and the Z score was -0.22.
For `O=C(NC1CCCCCCC1)c1cc2n(n1)CCCN(Cc1ccc(F)cc1)C2=O`, in that order: -4% and 0.51.
For `Cc1ccc(-c2cc3c4nn(CC(=O)Nc5cccc(C)c5)c(=O)n4ccn3n2)cc1`, in that order: 3% and -0.39.
The like results for `Cc1ccc(CNC(=O)c2cnc3c(c(C)nn3-c3ccccc3)c2O)cc1` were, in that order, -17% and 2.24.
`CCn1nccc1CNc1cc(Br)c(OC)cc1OC`: the “% Inhibition” value is reported as 3% and the Z score is on record as -0.37.
For `C[C@H]1C[C@]1(C)S(=O)(=O)NCCc1cn2c(n1)CCCC2`, in that order: -1% and 0.2.
`C=C(C)CC(C)C(=O)NC(CO)C(O)C1CCCCC1` (centres undefined): the “% Inhibition” value is 4% and the Z score was -0.6.
Turning to `Cc1ccncc1C(=O)N1CCC[C@H](c2nnc3n2CCN(C2CCCC2)C3)C1`, the “% Inhibition” value is recorded as -20% and the Z score was 3.88.
As to `Cc1ccc(-n2cnnc2)c(C(=O)N2CC3CCCC(C3)C2)c1`, the “% Inhibition” value is recorded as -4% and the Z score is listed as 0.73.
The like results for `Cn1cc(S(=O)(=O)N2CCCN(C(=O)CCS(=O)(=O)c3ccccc3)CC2)cn1` were, in that order, -3% and 0.47.
For `CCc1ncc2c(n1)CN(C(=O)c1snnc1CC)C2`, in that order: -7% and 1.42.
With `O=C(NC1CCOc2ccccc21)C1CCCO1` (centres undefined), the “% Inhibition” value is -3% and the Z score is listed as 0.47.
Regarding `O=C(c1c2c(nc3ccccc13)CCCC2)N1CCOCC1`, the “% Inhibition” value was -13% and the Z score is 1.58.
The like results for `CC(C)(C)C1CCN(c2ncnc(Oc3ccccc3F)c2N)CC1` were, in that order, -7% and 1.12.
